# Hit rate of the full screen: of about 310,000 compounds, about 2,200 (0.71%) showed an effect of 50% or more. The effect is printed as a negative number. This is one part of the list.
# Target: human ether-à-go-go-related gene (hERG) potassium channel (human, UniProt Q12809)
# Experiment: primary screen, population patch clamp on CHO cells stably expressing hERG
# Chain of human ether-à-go-go-related gene (hERG) potassium channel (Q12809 whole entry, looked up): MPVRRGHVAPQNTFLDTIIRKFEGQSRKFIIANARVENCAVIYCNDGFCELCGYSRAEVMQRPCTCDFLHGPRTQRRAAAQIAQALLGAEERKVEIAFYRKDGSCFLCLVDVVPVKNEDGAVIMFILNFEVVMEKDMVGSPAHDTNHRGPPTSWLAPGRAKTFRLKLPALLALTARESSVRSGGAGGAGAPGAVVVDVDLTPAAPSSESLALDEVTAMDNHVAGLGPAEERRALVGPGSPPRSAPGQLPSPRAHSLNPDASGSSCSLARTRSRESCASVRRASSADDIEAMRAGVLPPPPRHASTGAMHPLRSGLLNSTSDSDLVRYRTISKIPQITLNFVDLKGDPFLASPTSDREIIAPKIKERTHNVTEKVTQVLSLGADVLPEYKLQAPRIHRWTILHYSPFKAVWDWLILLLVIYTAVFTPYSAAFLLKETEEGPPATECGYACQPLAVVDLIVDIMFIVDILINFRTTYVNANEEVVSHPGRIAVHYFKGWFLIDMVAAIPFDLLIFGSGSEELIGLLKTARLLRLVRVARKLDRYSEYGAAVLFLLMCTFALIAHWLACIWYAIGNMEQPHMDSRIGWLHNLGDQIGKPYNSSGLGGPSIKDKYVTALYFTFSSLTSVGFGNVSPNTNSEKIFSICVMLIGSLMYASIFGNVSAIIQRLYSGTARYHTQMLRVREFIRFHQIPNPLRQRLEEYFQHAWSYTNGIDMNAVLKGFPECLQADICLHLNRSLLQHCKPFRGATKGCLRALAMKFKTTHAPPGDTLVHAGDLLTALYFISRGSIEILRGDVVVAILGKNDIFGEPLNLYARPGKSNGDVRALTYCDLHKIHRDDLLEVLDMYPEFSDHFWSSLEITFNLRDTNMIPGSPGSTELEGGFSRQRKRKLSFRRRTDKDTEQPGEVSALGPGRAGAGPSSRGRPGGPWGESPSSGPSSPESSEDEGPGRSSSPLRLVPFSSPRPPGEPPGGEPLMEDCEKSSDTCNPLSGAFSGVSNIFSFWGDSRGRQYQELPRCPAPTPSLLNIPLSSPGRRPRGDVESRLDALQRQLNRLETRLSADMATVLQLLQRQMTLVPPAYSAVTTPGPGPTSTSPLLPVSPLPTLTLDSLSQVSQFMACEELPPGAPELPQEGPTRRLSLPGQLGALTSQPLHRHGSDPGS
row,SMILES,"hERG current change (%, negative = inhibition) at 1uM"
1,CN1CCC(N(C)S(=O)(=O)c2ccc(F)cc2F)CC1,14.9%
2,CN(C)c1ccnc2sc3c(SCc4ccc(Cl)cc4)ncnc3c12,7.62%
3,CCC(C)N(C(=O)CSc1nc(C)c(C)c(C)c1C#N)C1CCS(=O)(=O)C1 (stereo not shown),3.66%
4,Cc1ccc(-n2c(Cn3ncc4ccccc4c3=O)n[nH]c2=S)cc1,7.15%
5,CC(=O)c1cc2c(cc1NS(=O)(=O)c1ccc(C)cc1)OCO2,-5.31%
6,Cc1ccc(Cn2nc(C)c(NC(=O)c3cc(C)no3)c2C)cc1,9.09%
7,CC1(C)CC2(CC(c3ccccc3)Oc3cc(O)ccc32)NC(=S)N1 (stereo not shown),6.06%
8,O=C(Nc1ccc(NC(=O)C2CC2)nc1)c1ccccn1,8.25%
9,CN(C)CCN1C(=O)C(=O)/C(=C(/O)c2ccc(S(=O)(=O)N3CCOCC3)cc2)C1c1ccc(Br)cc1 (stereo not shown),7.44%
10,COc1cc(C(=O)OC2CSCC2NC(=O)c2ccccc2)cc(OC)c1OC (stereo not shown),16.1%
11,O=[N+]([O-])c1ccc(/C=C/c2ccc3cccc(O)c3n2)cc1,8.84%
12,Cc1oc(-c2ccccc2F)nc1CN1CCC(C(=O)NC2CC2)CC1,0.032%
13,CN(C(=O)c1ccc(-c2nn(C)c(=O)c3ccccc23)cc1)C1CCCCC1,-0.517%
14,CN(CC(=O)NC1CCCCCCC1)S(=O)(=O)c1cccc2cccnc12,-7.56%
15,CC(NC(=O)c1ccc(-c2cc(C(F)(F)F)ccc2Cl)o1)c1ccccc1 (stereo not shown),10.3%
16,CCOC(=O)/C(=N\Nc1ccccc1)P(=O)(c1ccccc1)c1ccccc1,1.99%
17,Cl.NCCNCCNCCN,15.4%
18,O=C(C1CCN(S(=O)(=O)c2ccc(Cl)cc2)CC1)N1CCOCC1,1.99%
19,CN(C)S(=O)(=O)c1cc(NC(=O)C2=COCCO2)ccc1Cl,11.7%
20,Cc1ccc(S(=O)(=O)N2Cc3ccccc3CC2C(=O)Nn2cnnc2)cc1 (stereo not shown),-6.44%
21,O=C(Nc1nc(-c2ccccc2)cs1)c1ccc(Br)o1,12.3%
22,CCCCc1nnc(NC(=O)CSc2nc(O)c(Cc3ccccc3)c(=O)[nH]2)s1,13.2%

row,SMILES,"hERG current change (%, negative = inhibition) at 1uM"
1,COc1ccc(Cl)cc1NC(=O)CN1CCC(n2nnc3cc(F)ccc32)CC1,12.4%
2,CCc1ccc(/C=C2/Sc3ccccc3N(CC(=O)NCCCOC)C2=O)cc1,11.3%
3,CCOc1cccc2sc(N(CCN(C)C)C(=O)CCS(=O)(=O)c3ccccc3)nc12.Cl,7.1%
4,CN(c1ncc(C(F)(F)F)cc1Cl)n1cc(C(N)=O)c2ccccc2c1=O,3.75%
5,CC1S/C(=N\N=C\c2cccc([N+](=O)[O-])c2)N(C(C)(C)C)C1=O (stereo not shown),12.4%
6,CN1C/C(=C/c2cccnc2)C(=O)/C(=C/c2cccnc2)C1,-25.5%
7,CCN(CC)S(=O)(=O)c1ccc2[nH]cc(C(=O)NCCN3CCCCCC3)c(=O)c2c1,-8.03%
8,CC(=O)N1c2ccccc2-c2nc3ccccc3n2C1C (stereo not shown),11.1%
9,Cc1cccc(N2C(=O)CC(N3CCN(c4ccc(Cl)cc4)CC3)C2=O)c1 (stereo not shown),12.5%
10,COc1ccc(S(=O)(=O)NCCCCC(=O)O)cc1C(=O)O,2.43%
11,COC(=O)c1sc(NC(=S)NC(=O)c2ccc(C)cc2)nc1C,10.9%
12,CCC(CC)c1nnc(NC(=O)c2c(C)nn(Cc3ccccc3Cl)c2C)s1,9.35%
13,Cc1ccc(OCCC(=O)OCC(=O)NC(=O)NCc2ccccc2)cc1,8.32%
14,Br.COCCCN1Cc2ccccc2C1=N,-0.473%
15,COc1ccccc1OCC(=O)N(Cc1nc(-c2ccccc2)no1)C(C)C,7.9%
16,O=C(Cc1cccc(NC(=O)C2CCN(C(=O)C3CCCC3)CC2)c1)Nc1cccc(C(=O)N2CCCC2)c1,14.7%
17,COc1ccc(CCNC(=O)c2cc(-c3ccccn3)nc3c(Cl)cccc23)cc1OC,-0.734%
18,COc1ccc(/C(C)=N/OCC(=O)Nc2nc3ccccc3s2)cc1,5.56%
19,COc1ccc(C=O)cc1CSc1nnc(COc2cccc3cccnc23)o1,6.22%
20,COc1ccccc1CN1CC(C(=O)N(CCO)Cc2cccs2)CCC1=O (stereo not shown),18.9%
21,CCCN(C(=O)CCCSc1nc2ccccc2[nH]1)c1c(N)n(Cc2ccccc2)c(=O)[nH]c1=O,8.5%
22,Cc1cccc(C(=O)Oc2cccc3c(O)cccc23)c1,16.5%

row,SMILES,"hERG current change (%, negative = inhibition) at 1uM"
1,CCc1nnc(SCc2cn3c(C)cc(C)nc3n2)n1N,16.5%
2,O=C(Nc1ccc(F)cc1)C1C2CCC3C(CCC21)C3(Cl)Cl (stereo not shown),14.5%
3,CC1CCN(C(=O)c2ccc(N3C(=O)c4ccccc4C3=O)cc2)CC1,15.2%
4,Cc1ccc2cccc(S(=O)(=O)n3nc(C)cc3C)c2n1,7.96%
5,Cc1ccc(NC(=O)COc2ccccc2C#N)cc1S(=O)(=O)N1CCCCCC1,-11.9%
6,Cc1cc(C)cc(NC(=O)Nc2cccnc2)c1,10.4%
7,O=C(COC(=O)/C=C/c1ccc(Br)o1)Nc1ccccc1F,8.17%
8,COC(=O)CCCCCN1C(=O)NC(c2ccc(-c3ccccc3)cc2)C(C(=O)OCc2ccccc2)=C1C (stereo not shown),4.36%
9,O=C1C2C3C=CC(C3)C2C(=O)N1c1ccc2ccccc2n1 (stereo not shown),6.71%
10,CCOc1ccc(CN2CCN(Cc3cccn3-c3cccnc3)CC2CCO)cc1 (stereo not shown),-86.3%
11,O=C(N/N=C/c1ccc[nH]1)c1cc2ccccc2cc1O,15.4%
12,COC(=O)c1cccc(NC(=O)/C=C/c2cccc([N+](=O)[O-])c2)c1,5.91%
13,O=C(c1cnc(Cl)c(Cl)c1)N1CCN(S(=O)(=O)c2ccc(F)cc2)CC1,8.2%
14,CCCCOc1ccc(S(=O)(=O)Nc2cccnc2)cc1,2.57%
15,C/C(=N\NC(=O)COc1ccc([N+](=O)[O-])cc1)C(C)(C)C,10.3%
16,Cc1ccccc1[N+](=O)[O-],1.69%
17,CC1CCC2(CC1)NC(=O)N(CC(=O)Nc1ccc3c(c1)OCCCO3)C2=O (stereo not shown),6.19%
18,CC(C)[C@@H](C(=O)NC1CC1)N1C(=O)N2CCc3c([nH]c4ccccc34)[C@@]2(C)C1=O,6.22%
19,CCCCNC(=O)C1CCC(CNc2c(N3CCC(C)CC3)c(=O)c2=O)CC1 (stereo not shown),15.1%
20,CCOc1ccc(Cn2c(C)nc([N+](=O)[O-])c2SCC(O)CCl)cc1[N+](=O)[O-] (stereo not shown),-30.3%
21,Cc1ccc(S(=O)(=O)N2CCN(c3ccc([N+](=O)[O-])cn3)CC2)cc1,9.64%
22,COc1ccc(Br)cc1/C=N/NC(=O)C[n+]1ccccc1.[Cl-],6.88%

row,SMILES,"hERG current change (%, negative = inhibition) at 1uM"
1,Cc1nn(C)c(C)c1S(=O)(=O)N(CC(=O)Nc1nccs1)c1ccc(C(C)C)cc1,12.4%
2,Cn1nc(C(C)(C)C)c(NC(=O)c2ccc(F)cc2)c1C(C)(C)C,13.1%
3,COc1cc(NC(=O)CSc2nnc(-c3ccncc3)n2C2CCCCC2)ccc1NC(=O)c1ccco1,5.36%
4,CCN(CC(=O)Nc1ccc(OC)cc1)C(=O)c1ccc2c(=O)n3c(nc2c1)CCC3,14.1%
5,CCOC(=O)C1(CCOC)CCN(C(=O)Cc2ccsc2)CC1,11.3%
6,Cc1ccc(N/N=C(\C#N)C(=N)N2CCCCCC2)cc1,11.3%
7,CCCCN(C(=O)COC(=O)c1ccc(C=O)cc1)c1c(N)n(CCC)c(=O)[nH]c1=O,11%
8,C#CCOCCOCCOCCNc1nc(N2CCN(C(=O)[C@H]([C@@H](C)CC)n3cc([C@@H](N)Cc4ccc(O)cc4)nn3)CC2)nc(N2CCN(C(=O)[C@H](CCCCN)n3cc([C@@H](N)CC(C)C)nn3)CC2)n1.Cl,11.4%
9,CC(C)OCCCn1c(=N)c(C(N)=S)cc2c(=O)n3ccccc3nc21,-74.5%
10,CCc1ccc(Nc2nc(N)nc(CSc3nc4ccccc4s3)n2)cc1,11.8%
11,O=C(NCCC(=O)N1CCC2(CC1)NCCc1[nH]cnc12)c1ccc(Br)cc1,22.5%
12,CC(=O)NC1CCN(C(=O)N2CCCC2)CC1,-2.09%
13,Cc1cc(-n2c(SCCC#N)nnc2-c2cccnc2)ccc1Cl,-20%
14,CN(C)S(=O)(=O)c1ccc(N2CCCC2)c(C(=O)N2CCN(S(=O)(=O)c3ccc(F)cc3)CC2)c1,-0.883%
15,CN(CC(=O)NCc1ccccc1Cl)CC(=O)Nc1cccc(F)c1,-6.41%
16,CC(C)C(NC(=O)c1ccco1)C(=O)NC1CCCCCC1 (stereo not shown),11.7%
17,CC(NC(=O)C1CCCN(S(=O)(=O)c2ccc(-n3cnnn3)cc2)C1)c1ccc(F)cc1 (stereo not shown),9.25%
18,CC(C)(C)Nc1nc(OCC#N)nc(N2CCCCC2)n1,-11.3%
19,Clc1ccc(Cn2nnc3ccccc32)cc1,12%
